These results are taken from US12583836B2 (Anaxis Pharma Pty Ltd, priority 2020, dated 2026).

For one assay, the target named is T1, RIP1 (Homo sapiens, UniProt Q13546).
T1 construct: purchased DiscoverX (KINOMEscan service); host or cells: E. coli BL21-derived (T7 phage) or HEK293
T1 sequence (Q13546 1-671): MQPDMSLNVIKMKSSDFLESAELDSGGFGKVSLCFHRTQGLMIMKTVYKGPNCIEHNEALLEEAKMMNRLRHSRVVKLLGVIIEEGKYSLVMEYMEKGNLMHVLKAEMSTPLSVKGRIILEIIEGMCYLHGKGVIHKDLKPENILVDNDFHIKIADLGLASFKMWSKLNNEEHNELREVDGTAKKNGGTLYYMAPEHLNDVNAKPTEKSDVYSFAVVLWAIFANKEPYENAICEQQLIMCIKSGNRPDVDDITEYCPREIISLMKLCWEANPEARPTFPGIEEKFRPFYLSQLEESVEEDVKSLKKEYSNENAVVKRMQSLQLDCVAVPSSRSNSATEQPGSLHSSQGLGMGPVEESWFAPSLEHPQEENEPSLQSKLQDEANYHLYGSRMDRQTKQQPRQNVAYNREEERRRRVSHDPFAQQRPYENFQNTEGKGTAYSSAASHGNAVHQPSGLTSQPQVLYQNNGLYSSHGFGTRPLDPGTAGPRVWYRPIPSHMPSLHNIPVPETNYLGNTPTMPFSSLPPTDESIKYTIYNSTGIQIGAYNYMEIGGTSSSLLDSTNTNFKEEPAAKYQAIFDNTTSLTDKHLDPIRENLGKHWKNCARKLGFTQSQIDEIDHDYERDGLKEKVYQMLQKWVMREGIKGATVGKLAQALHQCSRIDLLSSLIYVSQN
The experiment in a line: KINOMEscan binding assay, RIP1. Conditions: equilibrium dissociation constant, class symbols.

The target in another assay is T2, MLKL (full length) (Homo sapiens, UniProt Q8NB16).
T2 construct: purchased DiscoverX (KINOMEscan service); host or cells: E. coli BL21-derived (T7 phage) or HEK293
T2 sequence (Q8NB16 1-471): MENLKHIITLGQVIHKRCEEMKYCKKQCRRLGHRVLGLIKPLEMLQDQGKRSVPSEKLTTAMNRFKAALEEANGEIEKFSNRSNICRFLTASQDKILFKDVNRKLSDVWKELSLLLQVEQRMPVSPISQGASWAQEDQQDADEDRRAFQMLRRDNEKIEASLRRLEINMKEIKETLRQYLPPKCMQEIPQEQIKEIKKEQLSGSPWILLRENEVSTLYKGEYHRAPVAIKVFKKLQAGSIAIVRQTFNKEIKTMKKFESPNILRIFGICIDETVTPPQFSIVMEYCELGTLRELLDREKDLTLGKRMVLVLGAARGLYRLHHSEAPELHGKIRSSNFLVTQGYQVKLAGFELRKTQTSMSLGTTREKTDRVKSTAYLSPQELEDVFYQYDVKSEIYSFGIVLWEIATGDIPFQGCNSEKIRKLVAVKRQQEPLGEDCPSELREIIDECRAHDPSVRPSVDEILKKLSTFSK
The experiment in a line: KINOMEscan binding assay, MLKL. The note with it: equilibrium dissociation constant, class symbols. The text has this: The Hill Slope was set to −1.

Regarding `CCS(=O)(=O)Nc1ccc(-c2n[nH]c(Nc3cccnn3)c2C(N)=O)cc1` [Compound 64, 3-(4-ethanesulfonamidophenyl)-5-[(pyridazin-3-yl)amino]-1H-pyrazole-4-carboxamide], the Kd at RIP1 is > 30 µM; at MLKL (full length), 0.01 to 1 µM.
For `CC(C)(C)S(=O)(=O)Nc1ccc(-c2n[nH]c(Nc3cnccn3)c2C(N)=O)cc1` [Compound 69, 3-(4-((1,1-dimethylethyl)sulfonamido)phenyl)-5-(pyrazin-2-ylamino)-1H-pyrazole-4-carboxamide], the Kd on RIP1 was > 30 µM; at MLKL (full length) it was 0.01 to 1 µM.
For `NC(=O)c1c(-c2ccc(NS(=O)(=O)c3cccc(C(F)(F)F)c3)cc2)n[nH]c1Nc1cnccn1` [Compound 73, 5-(pyrazin-2-ylamino)-3-(4-((3-(trifluoromethyl)phenyl)sulfonamido)phenyl)-1H-pyrazole-4-carboxamide], in that order: > 30 µM and 0.01 to 1 µM.
Consider `NC(=O)c1c(-c2ccc(NS(=O)(=O)Cc3ccc(C(F)(F)F)cc3)cc2)n[nH]c1Nc1cnccn1` [Compound 76, 5-[(pyrazin-2-yl)amino]-3-(4-{[4-(trifluoromethyl)phenyl]methanesulfonamido}phenyl)-1H-pyrazole-4-carboxamide], for which the equilibrium dissociation constant (Kd) on RIP1 was > 30 µM; on MLKL (full length), 0.01 to 1 µM.
Take `NC(=O)c1c(-c2ccc(NS(=O)(=O)CC3CCC3)cc2)n[nH]c1Nc1cnccn1` [Compound 81, 3-(4-((cyclobutylmethyl)sulfonamido)phenyl)-5-(pyrazin-2-ylamino)-1H-pyrazole-4-carboxamide]: the Kd on RIP1 was > 30 µM; at MLKL (full length) it was 0.01 to 1 µM.
On to `CCS(=O)(=O)Nc1ccc(-c2n[nH]c(Nc3ccc4ccccc4c3)c2C(N)=O)cc1` [Compound 86, 3-(4-(ethylsulfonamido)phenyl)-5-(naphthalen-2-ylamino)-1H-pyrazole-4-carboxamide], for which the results for the Kd at RIP1 and on MLKL (full length) were > 30 µM and < 0.01 µM, respectively.
As to `CCS(=O)(=O)Nc1ccc(-c2n[nH]c(Nc3ccn(C)n3)c2C(N)=O)cc1` [Compound 91, 3-(4-(ethylsulfonamido)phenyl)-5-((1-methyl-1H-pyrazol-3-yl)amino)-1H-pyrazole-4-carboxamide], the Kd at RIP1 was > 30 µM; on MLKL (full length), < 0.01 µM.
Regarding `CCS(=O)(=O)Nc1ccc(-c2n[nH]c(Nc3cncc(OC)n3)c2C(N)=O)cc1` [Compound 99, 3-(4-(ethylsulfonamido)phenyl)-5-((6-methoxypyrazin-2-yl)amino)-1H-pyrazole-4-carboxamide], the Kd is > 30 µM at RIP1 and < 0.01 µM at MLKL (full length).
On the same counts, the results for `CCS(=O)(=O)Nc1ccc(-c2n[nH]c(Nc3ccnc(C(F)(F)F)c3)c2C(N)=O)cc1` [Compound 104, 3-(4-(ethylsulfonamido)phenyl)-5-((2-(trifluoromethyl)pyridin-4-yl)amino)-1H-pyrazole-4-carboxamide] are > 30 µM and < 0.01 µM.
For `CCS(=O)(=O)Nc1ccc(-c2n[nH]c(Nc3cccc(OC)n3)c2C(N)=O)cc1` [Compound 107, 3-(4-(ethylsulfonamido)phenyl)-5-((6-methoxypyridin-2-yl)amino)-1H-pyrazole-4-carboxamide], in that order: > 30 µM and < 0.01 µM.
As for `CCS(=O)(=O)Nc1ccc(-c2n[nH]c(Nc3cc(C)ncc3F)c2C(N)=O)cc1` [Compound 111, 3-(4-(ethylsulfonamido)phenyl)-5-((5-fluoro-2-methylpyridin-4-yl)amino)-1H-pyrazole-4-carboxamide], the Kd at RIP1 was > 30 µM; on MLKL (full length) it was 0.01 to 1 µM.
For `COCCOc1cc(Nc2[nH]nc(-c3ccc(NS(=O)(=O)C(F)(F)F)cc3)c2C(N)=O)ccn1` [Compound 114, 5-((2-(2-methoxyethoxy)pyridin-4-yl)amino)-3-(4-((trifluoromethyl)sulfonamido)phenyl)-1H-pyrazole-4-carboxamide], in that order: > 30 µM and < 0.01 µM.
In the case of `CCS(=O)(=O)Nc1ccc(-c2n[nH]c(NC)c2C(N)=O)cc1` [Compound 119, 3-(4-(ethylsulfonamido)phenyl)-5-(methylamino)-1H-pyrazole-4-carboxamide], the equilibrium dissociation constant (Kd) on RIP1 lay within 1 to 30 µM; at MLKL (full length) it was 0.01 to 1 µM.
On the same counts, the results for `COCCOc1cc(Nc2[nH]nc(-c3ccc(NS(C)(=O)=O)cc3)c2C(N)=O)ccn1` [Compound 122, 5-((2-(2-methoxyethoxy)pyridin-4-yl)amino)-3-(4-(methylsulfonamido)phenyl)-1H-pyrazole-4-carboxamide] are > 30 µM and < 0.01 µM.
On the same counts, the results for `NC(=O)c1c(-c2ccc(NS(=O)(=O)Cc3cccc(Cl)c3)cc2)n[nH]c1Nc1ccccn1` [Compound 129, 3-(4-(((3-chlorophenyl)methyl)sulfonamido)phenyl)-5-(pyridin-2-ylamino)-1H-pyrazole-4-carboxamide] are > 30 µM and 1 to 30 µM.
On the same counts, the results for `Cc1ccc(CS(=O)(=O)Nc2ccc(-c3n[nH]c(Nc4ccccn4)c3C(N)=O)cc2)cc1` [Compound 132, 5-(pyridin-2-ylamino)-3-(4-((p-tolylmethyl)sulfonamido)phenyl)-1H-pyrazole-4-carboxamide] are > 30 µM and 0.01 to 1 µM.
`NC(=O)c1c(-c2ccc(NS(=O)(=O)CC(F)(F)F)cc2)n[nH]c1Nc1cnccn1` [Compound 137, 5-(pyrazin-2-ylamino)-3-(4-((2,2,2-trifluoroethyl)sulfonamido)phenyl)-1H-pyrazole-4-carboxamide]: the dissociation constant Kd on RIP1 was > 30 µM; at MLKL (full length) it was < 0.01 µM.
For `CCS(=O)(=O)Nc1ccc(-c2n[nH]c(Nc3cnccn3)c2C(N)=O)cc1OCc1c(C)cc(F)cc1C` [Compound 142, 3-(4-(ethylsulfonamido)-3-((4-fluoro-2,6-dimethylbenzyl)oxy)phenyl)-5-(pyrazin-2-ylamino)-1H-pyrazole-4-carboxamide], in that order: 1 to 30 µM and 1 to 30 µM.
For `NC(=O)c1c(-c2ccc(NS(=O)(=O)CC(F)(F)F)c(Oc3ccc(F)cc3)c2)n[nH]c1Nc1cccc(C(F)(F)F)n1` [Compound 148, 3-(3-(4-fluorophenoxy)-4-((2,2,2-trifluoroethyl)sulfonamido)phenyl)-5-((6-(trifluoromethyl)pyridine-2-yl)amino)-1H-pyrazole-4-carboxamide], in that order: > 30 µM and < 0.01 µM.
In the case of `NC(=O)c1c(-c2ccc(NS(=O)(=O)CC(F)(F)F)c(Oc3cccc(F)c3)c2)n[nH]c1Nc1cnccn1` [Compound 167, 3-(3-(3-fluorophenoxy)-4-((2,2,2-trifluoroethyl)sulfonamido)phenyl)-5-(pyrazin-2-ylamino)-1H-pyrazole-4-carboxamide], the figures for the Kd at RIP1 and on MLKL (full length) were > 30 µM and < 0.01 µM, respectively.
On to `CCS(=O)(=O)Nc1ccc(-c2n[nH]c(Nc3cccc(OC(F)(F)F)n3)c2C(N)=O)cc1OCc1ccc(F)cc1` [Compound 172, 3-(4-(ethylsulfonamido)-3-((4-fluorobenzyl)oxy)phenyl)-5-((6-(trifluoromethoxy)pyridine-2-yl)amino)-1H-pyrazole-4-carboxamide], for which the dissociation constant Kd at RIP1 was > 30 µM; at MLKL (full length), < 0.01 µM.
`CCS(=O)(=O)Nc1ccc(-c2n[nH]c(Nc3cccc(OCCOC)n3)c2C(N)=O)cc1OCc1ccc(F)cc1` [Compound 174, 3-(4-(ethylsulfonamido)-3-((4-fluorobenzyl)oxy)phenyl)-5-((6-(2-methoxyethoxy)pyridine-2-yl)amino)-1H-pyrazole-4-carboxamide]: the Kd is > 30 µM at RIP1 and 0.01 to 1 µM on MLKL (full length).
For `NC(=O)c1c(-c2ccc(NS(=O)(=O)CC(F)F)c(OCc3ccc(F)cc3)c2)n[nH]c1Nc1cccc(C(F)(F)F)n1` [Compound 178, 3-(4-((2,2-difluoroethyl)sulfonamido)-3-((4-fluorobenzyl)oxy)phenyl)-5-((6-(trifluoromethyl)pyridine-2-yl)amino)-1H-pyrazole-4-carboxamide], in that order: > 30 µM and < 0.01 µM.
For `Cc1cnc(Nc2[nH]nc(-c3ccc(NS(=O)(=O)CCC(F)(F)F)c(OCc4ccc(F)cc4)c3)c2C(N)=O)cn1` [Compound 183, 3-(3-((4-fluorobenzyl)oxy)-4-((3,3,3-trifluoropropyl)sulfonamido)phenyl)-5-((5-methylpyrazin-2-yl)amino)-1H-pyrazole-4-carboxamide], in that order: > 30 µM and < 0.01 µM.

The term Kd denotes a measure of binding affinity in units of concentration. Higher therefore signals weaker binding.
